{"source": "patent US20230322928A1", "about": "“TREATMENT METHODS USING CTLA-4 AND PD-1 BISPECIFIC ANTIBODIES” (MedImmune, LLC, priority 2022, published 2023)", "key": {"[1]": {"test_system": "advanced solid tumors", "test": "Phase 1 study: antitumor activity of MEDI5752 monotherapy, dose escalation and MTD/OBD cohorts (RECIST v1.1)", "assay_type": "in vivo, human"}, "[2]": {"test_system": "CD4+ T cell"}, "[3]": {"test_system": "nonsquamous NSCLC", "test": "Phase 1 study: antitumor activity in non-squamous NSCLC expansion cohorts (with carboplatin/pemetrexed)", "assay_type": "in vivo, human", "from_the_text": "(§1) The primary endpoint was OR, which is commonly used in oncology studies evaluating subjects with advanced solid tumors, including RCC or NSCLC. The primary objective for the squamous NSCLC expansion cohort was to evaluate the safety and tolerability of MEDI5752 in subjects with advanced solid tumors when combined with chemotherapy.\nPD-L1 status will be assessed in subjects who have provided archival or fresh tumor biopsies. For the NSCLC expansion cohorts, PD-L1 positive is defined as baseline PD-L1 expression with tumor cell ≥1% and PD-L1 negative is defined as baseline PD-L1 expression with tumor cell <1%."}, "[4]": {"test_system": "advanced clear-cell RCC", "test": "Phase 1 study: antitumor activity in RCC expansion cohorts", "assay_type": "in vivo, human", "from_the_text": "as §1"}, "[5]": {"conditions": "500 mg during dose escalation, 5 subjects"}, "[6]": {"conditions": "750 mg during dose escalation, 8 subjects"}}, "data": [{"substance": "MEDI5752: anti-PD-1/CTLA-4 bispecific antibody; light chain SEQ ID NO:1 and heavy chain SEQ ID NO:2 (PD-1), light chain SEQ ID NO:3 and heavy chain SEQ ID NO:4 (CTLA-4)", "values": [{"measurement": "Subjects with best overall response of partial response (PR)", "setting": "[1]; [5]", "result": 2, "unit": "subjects"}, {"measurement": "Subjects with progressive disease (PD)", "setting": "[1]; [5]", "result": 1, "unit": "subject"}, {"measurement": "Subjects with BOR of SD", "setting": "[1]; [6]", "result": 4, "unit": "subjects"}, {"measurement": "Subjects with PD", "setting": "[1]; [6]", "result": 3}, {"measurement": "Median duration of response", "setting": "[1]; MEDI5752 monotherapy (FIG. 9)", "result": 17.5, "unit": "months"}, {"measurement": "Response in diverse IO-naïve tumors", "setting": "[1]; Monotherapy across a range of MEDI5752 doses (FIG. 10)", "result": "durable response"}, {"measurement": "Complete response (CR), subjects", "setting": "[1]; Monotherapy, dose-escalation and MTD/OBD cohorts, regardless of dose, 86 subjects", "result": 1}, {"measurement": "Overall objective response rate (ORR) per RECIST v1.1", "setting": "[1]; Monotherapy, dose-escalation and MTD/OBD cohorts, regardless of dose, response evaluable (17/86)", "result": 19.8, "unit": "%"}, {"measurement": "CD4+ T cell activation", "setting": "[2]; Monotherapy setting", "result": "dose-dependent increase"}, {"measurement": "CD4+ T cell proliferation", "setting": "[2]; Monotherapy, plateauing at 500/750 mg and above", "result": "dose-dependent increase"}, {"measurement": "Dose-limiting toxicities (DLTs)", "setting": "2500 mg monotherapy cohort, one subject", "result": "Grade 3 maculopapular rash"}, {"measurement": "Deaths judged to be related to MEDI5752 treatment", "setting": "one due to diabetic ketoacidosis and hyperthyroidism, one due to myocardial infarction", "result": "Two deaths"}, {"measurement": "ORR", "setting": "[3]; NSCLC-C1R, MEDI5752 1500 mg+carboplatin/pemetrexed arm (10/20)", "result": 50.0, "unit": "%"}, {"measurement": "Preliminary response of CR+PR+unconfirmed PR", "setting": "[3]; NSCLC-C2 non-squamous, MEDI5752 500 mg+carboplatin/pemetrexed (11/32)", "result": 34.4, "unit": "%"}, {"measurement": "ORR", "setting": "[3]; NSCLC-C2 non-squamous, MEDI5752 500 mg+carboplatin/pemetrexed, response-evaluable (8/32)", "result": 25, "unit": "%"}, {"measurement": "ORR, PD-L1 <1% subgroup", "setting": "[3]; NSCLC-C2 non-squamous, MEDI5752 750 mg+carboplatin/pemetrexed (24/48)", "result": 50, "unit": "%"}, {"measurement": "ORR", "setting": "[3]; NSCLC-C2 non-squamous, MEDI5752 750 mg+carboplatin/pemetrexed, first 66 subjects, response-evaluable (30/66)", "result": 45.5, "unit": "%"}, {"measurement": "Durability of responses, first-line RCC cohort", "setting": "[4]; FIG. 13", "result": "durable"}, {"measurement": "ORR", "setting": "[4]; RCC expansion cohort RCC-C1, MEDI5752 1500 mg (10/26)", "result": 38.5, "unit": "%"}, {"measurement": "CRs", "setting": "[4]; RCC expansion cohort RCC-C1, MEDI5752 1500 mg, 26 subjects", "result": 2}, {"measurement": "ORR in the first-line RCC subjects", "setting": "[4]; RCC-C1, MEDI5752 1500 mg (7/12)", "result": 58.3, "unit": "%"}]}, {"substance": "Pembrolizumab [reference compound]", "values": [{"measurement": "ORR", "setting": "[3]; NSCLC-C1R, pembrolizumab+carboplatin/pemetrexed arm (10/21)", "result": 47.6, "unit": "%"}]}]}
